{
  "source": "PubChem BioAssay (NCATS)",
  "target": "Cytochrome P450 2C19 (Homo sapiens) (UniProt P33261)",
  "sequence (P33261 whole entry, looked up)": "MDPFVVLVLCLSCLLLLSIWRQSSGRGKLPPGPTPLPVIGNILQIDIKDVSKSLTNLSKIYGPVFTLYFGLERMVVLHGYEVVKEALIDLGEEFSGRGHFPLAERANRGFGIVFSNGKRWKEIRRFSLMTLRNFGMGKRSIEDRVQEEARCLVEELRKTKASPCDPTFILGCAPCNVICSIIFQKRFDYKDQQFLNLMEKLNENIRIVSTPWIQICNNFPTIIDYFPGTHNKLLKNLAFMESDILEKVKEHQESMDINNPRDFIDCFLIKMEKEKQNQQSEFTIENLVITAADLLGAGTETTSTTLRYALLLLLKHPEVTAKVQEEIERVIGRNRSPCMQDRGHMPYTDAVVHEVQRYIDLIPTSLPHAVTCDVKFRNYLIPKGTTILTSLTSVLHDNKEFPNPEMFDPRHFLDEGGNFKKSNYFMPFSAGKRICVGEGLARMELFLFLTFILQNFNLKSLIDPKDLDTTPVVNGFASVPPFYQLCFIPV",
  "assay": "qHTS Assay for Inhibitors and Substrates of Cytochrome P450 2C19 (AID 899); note: nearly all actives have a fitted effect of over 60% in size; note: potency is the fitted concentration of half-maximal effect",
  "details": "recombinant CYP2C19, luciferin-H EGE luminescence; series mostly up to 11.4 µM",
  "how_it_was_run": "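Signal comes from luciferase acting on luciferin released by CYP2C19-mediated hydroxylation of Luciferin-H EGE, 10uM (KM). Assay mix: 5nM enzyme, 50mM KPO4; 60 min at 37C with NADPH regeneration. Data normalized against 57uM ketoconazole.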",
  "note": "Inconclusive results are not listed. Calls come from the whole dose curve; as a rule, active = well fitted inhibition curve with a large enough effect; inconclusive = small, poorly fitted or top-dose-only effect; inactive = no such curve, though single readings can be large or run the other way. More than one record can exist for a structure, and the calls need not agree. The source holds more than one record for some entries. They are shown here; other results are not. There may be further records. Values that stand side by side repeat one measurement (runs, samples, wells, individuals or studies).",
  "data": [
    {"compound": "CC1CCC2C(=O)OC(CN=[N+]=[N-])CN2C1c1ccc(Br)cc1", "note": "(stereo unspecified)", "values": [
      {"measurement": "Potency", "value": "inactive and active: 2.51 µM, 398 nM, 20 nM, 1.26 µM [separate samples]"}
    ]}
  ]
}
